± gives the standard deviation of the averaged measurements. In all, about 4,100 sequences were measured (“arbitrary fluorescence units”: median about 780, highest 2% from about 22,000 on). The list shows a part of the results.
biological target: T1, ETS1 (UniProt P14921); assay: ETS1 binding intensity (PBM fluorescence), ETS1 alone (arbitrary fluorescence units); higher = stronger binding; details: ETS1 concentration 1 nM; RUNX1 concentration 0 nM
T1 sequence: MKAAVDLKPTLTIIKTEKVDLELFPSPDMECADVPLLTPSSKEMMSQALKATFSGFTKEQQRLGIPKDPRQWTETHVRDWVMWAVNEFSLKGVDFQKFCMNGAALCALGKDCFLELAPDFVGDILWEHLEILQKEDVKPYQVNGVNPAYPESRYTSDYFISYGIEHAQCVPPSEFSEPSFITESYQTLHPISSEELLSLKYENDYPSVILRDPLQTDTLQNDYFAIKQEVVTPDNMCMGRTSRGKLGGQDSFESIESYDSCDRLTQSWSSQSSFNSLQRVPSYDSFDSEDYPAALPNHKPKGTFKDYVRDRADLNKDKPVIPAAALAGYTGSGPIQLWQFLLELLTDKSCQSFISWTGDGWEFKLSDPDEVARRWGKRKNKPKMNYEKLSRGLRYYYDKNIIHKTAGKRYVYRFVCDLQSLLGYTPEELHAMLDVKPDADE
Procedure, shortened: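 Full-length recombinant human ETS1 (1 nM, no RUNX1) was incubated, per standard PBM protocols, on double-stranded Agilent 4 × 180k arrays of 36-bp genomic probes whose RUNX1 partner site was mutated. Bound ETS1 was detected with anti-ETS1 antibody (Cell Signaling Technology 14069) and Alexa488-conjugated secondary antibody, then scanned on a GenePix 4400A. Binding level is spot fluorescence intensity, summarised over replicate spots (four printed per sequence) and not normalised.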

Question: AGGAGCCCTCAGCCCTGGGAGTGTTTCCTGTTTGCC was tested. Which ETS1 binding intensity did it give?
Answer: 1360

Question: With GGCAAACAGGAAACACTCCCAGGGCTGAGGGCTCCT as the sequence, how does the ETS1 binding intensity read?
Answer: 6050

Question: How did the ETS1 binding intensity turn out when GTCTCTTGGTAGTTGATAAGCTAAACGGAAGTGAGT was run?
Answer: 1170

Question: CACTTCCTATCGCTACATAACAAATTATCACAGACT was tested. Which ETS1 binding intensity did it give?
Answer: 10500

Question: For AGGCTTCTCCCGGACGTCTCTTTGGGGTGGCGTTGA, which ETS1 binding intensity is on record?
Answer: 473

Question: With CCTGACTTCCTCCTCCCCCTCCCGCCCCAATTCCGC as the sequence, how does the ETS1 binding intensity read?
Answer: 4620

Question: How did the ETS1 binding intensity turn out when GGGCTCCAGTTCCGCTGTCTGAGGGTCTCGCGCGCC was run?
Answer: 1890

Question: How did the ETS1 binding intensity turn out when GGATGGCGGAAGAGGCGGCTGAGGCCGTAGGACGTG was run?
Answer: 931

Question: For GTAGGAACAGCGATGTACAGACAGGAAACCCAGGTC, which ETS1 binding intensity is on record?
Answer: 807

Question: With GACCTGAGGTGGAGGGCGCGACCTTGGCTTCCTGGC as the sequence, how does the ETS1 binding intensity read?
Answer: 379

Question: TTTTCCCACTTCCTAGGTTGTCGTGGGGATTACACA was tested. Which ETS1 binding intensity did it give?
Answer: 2130

Question: CCTCCTTCCTCCCTGAGGGGGAGGTGCTTTTTGAGT was tested. Which ETS1 binding intensity did it give?
Answer: 1560

Question: For AACCTGAGGGTGGGAGGTGAAGCGGAACGGTCCCGG, which ETS1 binding intensity is on record?
Answer: 421

Question: For TAATGCTGTTGCTCACTTAACAGACTACAGGATGGT, which ETS1 binding intensity is on record?
Answer: 374

Question: With CCTCTCTGTCGTTCTGCCTGGAAGACGGAAGGCAGG as the sequence, how does the ETS1 binding intensity read?
Answer: 501

Question: TGGAAGCGGCTTCCGGGGTGAATGCTGTTGGATCGT was tested. Which ETS1 binding intensity did it give?
Answer: 9350

Question: Which ETS1 binding intensity does the source give for TCGCCTGCGTTCCGCTGGTTGAGGGCTTTCAGCGGC here?
Answer: 286

Question: GCTCTCTGGGCTTGGAGGATGCAGGCGCCTTCCTGG was tested. Which ETS1 binding intensity did it give?
Answer: 338

Question: How did the ETS1 binding intensity turn out when ACAATAGGAAGCTTCTCTGTGATTTTGAGCCCCAAA was run?
Answer: 498

Question: With GCCGCCTCTTCCTGTGTTGCAAATCACAGGTCCACC as the sequence, how does the ETS1 binding intensity read?
Answer: 9760

Question: For CCCCAGGTTGCTTCCGTTCTGGGAATCGCGTCCTCG, which ETS1 binding intensity is on record?
Answer: 6890

Question: With CTGAGGGTAACTGAAATCACAGCAAGCGGAACTGTA as the sequence, how does the ETS1 binding intensity read?
Answer: 413

Question: Which ETS1 binding intensity does the source give for GGAGGCTCTGGTGAGGAAAGAGGAAGTGACACTCCT here?
Answer: 1200

Question: How did the ETS1 binding intensity turn out when TAGTCCAGATACCGAGGGGCACGTCGGAAGCTGATA was run?
Answer: 370

Question: AACATCCTGTGTAAAGAGAATTGAATGTAGTTTTCT was tested. Which ETS1 binding intensity did it give?
Answer: 25200

Question: GAGCAACCAGGAAGAGCTTTGGCTGAGGGCTAAGAT was tested. Which ETS1 binding intensity did it give?
Answer: 552

Question: With CCGCTGAGCCTTCCGCCCAGGCCACCTGCACTCAGC as the sequence, how does the ETS1 binding intensity read?
Answer: 1340

Question: CAAGCTGGCAGGAAGCGCGGTGCAACCCCAAGAGTC was tested. Which ETS1 binding intensity did it give?
Answer: 2370

Question: For CTGTCATCTTCCTGACAGCACGCTCACAAAGGACCA, which ETS1 binding intensity is on record?
Answer: 648

Question: CGTAGACACCTTCCGCTGCACCCAGCCCCAGCTGGT was tested. Which ETS1 binding intensity did it give?
Answer: 2460

Question: Which ETS1 binding intensity does the source give for CTGGCCGTGGCGTCCGGGAGCTGAGGGGCCGTCCCC here?
Answer: 484

Question: How did the ETS1 binding intensity turn out when AGGCCGTGCAGGAAATGAGACCTACAGCCACGTCAC was run?
Answer: 3810

Question: How did the ETS1 binding intensity turn out when GCGCAGAGGACAGCGGCGACCGGAAAAGCAAGGCAG was run?
Answer: 1920

Question: How did the ETS1 binding intensity turn out when GACCTGGGTTTCCTGTCTGTACATCGCTGTTCCTAC was run?
Answer: 10100

Question: Which ETS1 binding intensity does the source give for TGACTTCCGGTCCGTAGTGGGGCCTTCGGTGGGAGT here?
Answer: 35800

Question: How did the ETS1 binding intensity turn out when TTGGGGTTGCCGGGGATCGCTGTTGCCATCCTGACT was run?
Answer: 378

Question: GCTGCGCAGAGGAAACCAGGCTTGTTGGTGTTCATG was tested. Which ETS1 binding intensity did it give?
Answer: 412

Question: How did the ETS1 binding intensity turn out when GAGTTCCGCCTCGCCGTTTGTCCCTTACGGTACCCG was run?
Answer: 2490

Question: How did the ETS1 binding intensity turn out when TCGGCTGCAGGAAAGGCACGCCGTCTCCCTCTTGGC was run?
Answer: 341

Question: How did the ETS1 binding intensity turn out when CTGCACTTCCGGTCAGGCGGTCGGGCTGAGGGGCCC was run?
Answer: 36600

Question: Which ETS1 binding intensity does the source give for ACTACAGGAGGAAACTACAGCCTAAACTACATGCAA here?
Answer: 534

Question: How did the ETS1 binding intensity turn out when GTCCCTTGGGGCTACACAGGCAGGAAGCAGGTGGCA was run?
Answer: 767

Question: AAAGAATGTTACGGCCAGAGAGCATCCGCTGTCGCT was tested. Which ETS1 binding intensity did it give?
Answer: 812

Question: How did the ETS1 binding intensity turn out when CTCAGAGCTGCGGAAACTACAACTCCCACTAGGCTG was run?
Answer: 529

Question: With GGAGCAGAGACCTCGATTACTCAACAGGAAAGAGAG as the sequence, how does the ETS1 binding intensity read?
Answer: 405

Question: Which ETS1 binding intensity does the source give for TCCCACTGCGACGGAAGCACAGCGGCTAAGATTGCA here?
Answer: 558

Question: With AGATGAGGAAGTTGGGGTTTAGAGTGCTTAAACTGT as the sequence, how does the ETS1 binding intensity read?
Answer: 1200

Question: For GATATGCAGAAATCCAACCTACAGGAAGGTGAGTCA, which ETS1 binding intensity is on record?
Answer: 416

Question: Which ETS1 binding intensity does the source give for TTATCCACTGTTCTCTAAATACTGTACATCCTTTAT here?
Answer: 684

Question: GCAGCGTTTCCTTCCACGGCAGCGGCAGCGGGCGCT was tested. Which ETS1 binding intensity did it give?
Answer: 2300

Question: Which ETS1 binding intensity does the source give for GCGCAACGAACAGCAGGTACCGGAAGAGCACACTTC here?
Answer: 2160

Question: CCCTTCTTCCTGGGTCCTCCAATTGCTACAGCGCGC was tested. Which ETS1 binding intensity did it give?
Answer: 2570

Question: With CACTTCCTCCTCGGGGGCCTCAGAAAATCACAGGGC as the sequence, how does the ETS1 binding intensity read?
Answer: 13200

Question: With TCCCGGGAGCGGATTTAGGGGGCCGCTTCCTTGGCC as the sequence, how does the ETS1 binding intensity read?
Answer: 435 ± 20

Question: Which ETS1 binding intensity does the source give for GCCTCGCGGCGCAGGCCGCTCCCGGATGTGTGCCTG here?
Answer: 528

Question: GACACCCAGGCCGCTGGCACTTCCCACCCCACCCCA was tested. Which ETS1 binding intensity did it give?
Answer: 374

Question: AAAAACAAGGAAGCCTGAAGGGAAGGCGGGTGAAAA was tested. Which ETS1 binding intensity did it give?
Answer: 497

Question: For CACCTTGTAGTTTCTCTGAGTGTCACACATCCCCAG, which ETS1 binding intensity is on record?
Answer: 581

Question: How did the ETS1 binding intensity turn out when CTCTGAACCCCATGATCTCTAAGACCACTTCCTGTT was run?
Answer: 2780

Question: With TTAGGACCCAGCGGAGGGCTCTCCGGAAGGGGAAGG as the sequence, how does the ETS1 binding intensity read?
Answer: 387

Question: For CCAGCACTCCCCCAAGCCGCCGGAAGTCAACTCTCC, which ETS1 binding intensity is on record?
Answer: 2960

Question: Which ETS1 binding intensity does the source give for CACCTGCCCAGCCGCCAGCTTCCTTTCTCATTCTTG here?
Answer: 701

Question: Which ETS1 binding intensity does the source give for GGCTACGGAAACTCGCGAGAGCGAGGTTCAGAGGCA here?
Answer: 462

Question: CAGCCGCCGACTTCCCCAGTAGTAACGCGCCGCTCC was tested. Which ETS1 binding intensity did it give?
Answer: 885

Question: ACAATGAGTGCTTTTCTGAAGTTCCGGACCATCTGT was tested. Which ETS1 binding intensity did it give?
Answer: 511

Question: For CCCACAGGAAATCCCCTGGTCCGTGGCGCCTCTGAT, which ETS1 binding intensity is on record?
Answer: 3150

Question: For CGTGGCGGAAGCCGCGGGGACAGCGGGGGCGGAGTG, which ETS1 binding intensity is on record?
Answer: 1560

Question: For GTAAGAACTACAACCCCTCGAGAGGAAGCACTTTTG, which ETS1 binding intensity is on record?
Answer: 442

Question: With CTGAGCCACCGAAGCCAGTCTTTTATGCATCCGGCG as the sequence, how does the ETS1 binding intensity read?
Answer: 487

Question: Which ETS1 binding intensity does the source give for CTGCAGCGGGGGCTGACATCACAGCAAGGAAACTGT here?
Answer: 523

Question: CAGGGAGCGGGCGGAACCTTTCTACCGAGTCTCTAG was tested. Which ETS1 binding intensity did it give?
Answer: 423

Question: How did the ETS1 binding intensity turn out when TAGGTTTGGGGTAGAAGCTGCAGGAACTTCCTGTCC was run?
Answer: 1710

Question: How did the ETS1 binding intensity turn out when TTGAGCCTAAGCACTGCACGAGCACAGGATGTGGGA was run?
Answer: 526

Question: Which ETS1 binding intensity does the source give for TTACACAACAGGAAACTATGTTTAGCGGCTAATCCA here?
Answer: 3090

Question: AGCTTTACGGCAGTGTGCGCCCCGGAAGCCTGAAGC was tested. Which ETS1 binding intensity did it give?
Answer: 702

Question: TTCAACAGGATGTGGGAACTTGACTCTCGCCGTAAA was tested. Which ETS1 binding intensity did it give?
Answer: 4800

Question: For CGTGGCGCTATCCCGGAGCCTGCCGTCCGGCCCTAC, which ETS1 binding intensity is on record?
Answer: 377

Question: GGCCCCAACGCTGTTAGCGCTTCCGAAAACTCCCCC was tested. Which ETS1 binding intensity did it give?
Answer: 417

Question: How did the ETS1 binding intensity turn out when GGCTCTGCCGTCCGCTGACAGGAAGACGCTGACGAC was run?
Answer: 973

Question: How did the ETS1 binding intensity turn out when ATCTCAACTAGGAAATGTTTTTGTGACCAAAAAGGG was run?
Answer: 508

— the supplement of paper PMC10681739
